Test results: the supplement of paper PMC4967469
Lines with a small IC50 respond at low doses; a fit beyond the top or the lowest dose is shown as a bound at that dose. AUC, from the same fit, is the share of area under the viability curve across the 256-fold dose range; it is 1 without any effect and falls as sensitivity rises. For part of these data: Where the top dose is marked as inferred, it was calculated from the reported fits.

What was measured:
Assay in all cases: Viability of human cancer cell lines after 72 h of drug (GDSC screen)
PIK-93 = compound: CC(=O)Nc1nc(C)c(-c2ccc(Cl)c(S(=O)(=O)NCCO)c2)s1 [PIK-93]; conditions: top dose 20 µM
Protocol: (§1)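 Human cancer cell lines in 384-well plates, medium with 10% serum, drug for 72 h over a 256-fold dose range (nine 2-fold or five 4-fold steps up to the top dose). Adherent lines were fixed and stained with the nucleic acid dye Syto60, suspension lines read with resazurin; signal relative to control wells, capped at 0 and 100%. One two-parameter sigmoid per drug and line, fitted in a mixed model over all curves with the slope shared within a line.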

ABT-263 = compound: CC1(C)CCC(c2ccc(Cl)cc2)=C(CN2CCN(c3ccc(C(=O)NS(=O)(=O)c4ccc(N[C@H](CCN5CCOCC5)CSc5ccccc5)c(S(=O)(=O)C(F)(F)F)c4)cc3)CC2)C1 [ABT-263]; conditions: top dose 2 µM; top dose inferred
Protocol: as §1

piperlongumine = compound: COc1cc(/C=C/C(=O)N2CCC=CC2=O)cc(OC)c1OC [piperlongumine]; conditions: top dose 10 µM
Protocol: as §1

GW843682X = compound: COc1cc2ncn(-c3cc(OCc4ccccc4C(F)(F)F)c(C(N)=O)s3)c2cc1OC [GW843682X]; conditions: top dose 0.256 µM
Protocol: as §1

GW 441756 = compound: Cn1cc(/C=C2\C(=O)Nc3cccnc32)c2ccccc21 [GW 441756]; conditions: top dose 2 µM; top dose inferred
Protocol: as §1

Salubrinal = compound: O=C(/C=C/c1ccccc1)NC(NC(=S)Nc1cccc2cccnc12)C(Cl)(Cl)Cl [Salubrinal]; conditions: top dose 16 µM; top dose inferred
Protocol: as §1

Cell Line: NMC-G1 (glioma, adherent)
- AUC (PIK-93): 0.781
- IC50 (PIK-93): 10300 nM
- AUC (ABT-263): 0.779
- IC50 (ABT-263): 1010 nM
- AUC (piperlongumine): 0.769
- IC50 (piperlongumine): 4630 nM
- AUC (GW843682X): 0.783
- IC50 (GW843682X): 134 nM
- AUC (GW 441756): 0.964
- IC50 (GW 441756): > 2000 nM
- AUC (Salubrinal): 0.873
- IC50 (Salubrinal): > 16000 nM

Cell Line: NEC8 (testis, adherent)
- AUC (PIK-93): 0.836
- IC50 (PIK-93): 10500 nM
- AUC (ABT-263): 0.92
- IC50 (ABT-263): > 2000 nM
- AUC (piperlongumine): 0.789
- IC50 (piperlongumine): 3710 nM
- AUC (GW843682X): 0.689
- IC50 (GW843682X): 49.2 nM
- AUC (GW 441756): 0.79
- IC50 (GW 441756): 745 nM
- AUC (Salubrinal): 0.797
- IC50 (Salubrinal): 6290 nM

Cell Line: COLO-668 (small cell lung carcinoma, adherent)
- AUC (PIK-93): 0.845
- IC50 (PIK-93): 14500 nM
- AUC (ABT-263): 0.924
- IC50 (ABT-263): > 2000 nM
- AUC (piperlongumine): 0.894
- IC50 (piperlongumine): > 10000 nM
- AUC (GW843682X): 0.824
- IC50 (GW843682X): 152 nM
- AUC (GW 441756): 0.982
- IC50 (GW 441756): > 2000 nM
- AUC (Salubrinal): 0.952
- IC50 (Salubrinal): > 16000 nM

Cell Line: BE2-M17 (neuroblastoma, adherent)
- AUC (PIK-93): 0.952
- IC50 (PIK-93): > 20000 nM
- AUC (ABT-263): 0.983
- IC50 (ABT-263): > 2000 nM
- AUC (piperlongumine): 0.789
- IC50 (piperlongumine): 4550 nM
- AUC (GW843682X): 0.524
- IC50 (GW843682X): 18.6 nM
- AUC (GW 441756): 0.944
- IC50 (GW 441756): > 2000 nM
- AUC (Salubrinal): 0.964
- IC50 (Salubrinal): > 16000 nM

Cell Line: NB13 (neuroblastoma, adherent)
- AUC (PIK-93): 0.739
- IC50 (PIK-93): 5450 nM
- AUC (ABT-263): 0.442
- IC50 (ABT-263): 88.7 nM
- AUC (piperlongumine): 0.809
- IC50 (piperlongumine): 4490 nM
- AUC (GW843682X): 0.487
- IC50 (GW843682X): 14.8 nM
- AUC (GW 441756): 0.99
- IC50 (GW 441756): > 2000 nM
- AUC (Salubrinal): 0.87
- IC50 (Salubrinal): 12100 nM

Cell Line: ES4 (Ewing sarcoma, adherent)
- AUC (PIK-93): 0.627
- IC50 (PIK-93): 2950 nM
- AUC (ABT-263): 0.84
- IC50 (ABT-263): 1680 nM
- AUC (piperlongumine): 0.735
- IC50 (piperlongumine): 3280 nM
- AUC (GW843682X): 0.572
- IC50 (GW843682X): 26 nM
- AUC (GW 441756): 0.954
- IC50 (GW 441756): > 2000 nM
- AUC (Salubrinal): 0.952
- IC50 (Salubrinal): > 16000 nM

Cell Line: LC4-1 (lymphoblastic leukaemia, suspension)
- AUC (PIK-93): 0.388
- IC50 (PIK-93): 594 nM
- AUC (ABT-263): 0.555
- IC50 (ABT-263): 180 nM
- AUC (piperlongumine): 0.793
- IC50 (piperlongumine): 5140 nM
- AUC (GW843682X): 0.66
- IC50 (GW843682X): 46.8 nM
- AUC (GW 441756): 0.974
- IC50 (GW 441756): > 2000 nM
- AUC (Salubrinal): 0.871
- IC50 (Salubrinal): > 16000 nM

Cell Line: D-283MED (medulloblastoma, adherent)
- AUC (PIK-93): 0.991
- IC50 (PIK-93): > 20000 nM
- AUC (ABT-263): 0.57
- IC50 (ABT-263): 191 nM
- AUC (piperlongumine): 0.852
- IC50 (piperlongumine): 6720 nM
- AUC (GW843682X): 0.991
- IC50 (GW843682X): > 256 nM
- AUC (GW 441756): 0.983
- IC50 (GW 441756): > 2000 nM
- AUC (Salubrinal): 0.989
- IC50 (Salubrinal): > 16000 nM

Cell Line: LS-1034 (large intestine, adherent)
- AUC (PIK-93): 0.752
- IC50 (PIK-93): 7230 nM
- AUC (ABT-263): 0.983
- IC50 (ABT-263): > 2000 nM
- AUC (piperlongumine): 0.86
- IC50 (piperlongumine): 9890 nM
- AUC (GW843682X): 0.65
- IC50 (GW843682X): 43.5 nM
- AUC (GW 441756): 0.985
- IC50 (GW 441756): > 2000 nM
- AUC (Salubrinal): 0.957
- IC50 (Salubrinal): > 16000 nM

Cell Line: GOTO (neuroblastoma, adherent)
- AUC (PIK-93): 0.857
- IC50 (PIK-93): 19900 nM
- AUC (ABT-263): 0.844
- IC50 (ABT-263): 1720 nM
- AUC (piperlongumine): 0.774
- IC50 (piperlongumine): 4470 nM
- AUC (GW843682X): 0.853
- IC50 (GW843682X): 244 nM
- AUC (GW 441756): 0.935
- IC50 (GW 441756): > 2000 nM
- AUC (Salubrinal): 0.916
- IC50 (Salubrinal): > 16000 nM

Cell Line: EM-2 (chronic myeloid leukaemia, suspension)
- AUC (PIK-93): 0.74
- IC50 (PIK-93): 6750 nM
- AUC (ABT-263): 0.47
- IC50 (ABT-263): 102 nM
- AUC (piperlongumine): 0.736
- IC50 (piperlongumine): 3260 nM
- AUC (GW843682X): 0.648
- IC50 (GW843682X): 43.4 nM
- AUC (GW 441756): 0.958
- IC50 (GW 441756): > 2000 nM
- AUC (Salubrinal): 0.888
- IC50 (Salubrinal): > 16000 nM

Cell Line: COLO-824 (breast, adherent)
- AUC (PIK-93): 0.818
- IC50 (PIK-93): 11600 nM
- AUC (ABT-263): 0.809
- IC50 (ABT-263): 1070 nM
- AUC (piperlongumine): 0.799
- IC50 (piperlongumine): 4930 nM
- AUC (GW843682X): 0.977
- IC50 (GW843682X): > 256 nM
- AUC (GW 441756): 0.986
- IC50 (GW 441756): > 2000 nM
- AUC (Salubrinal): 0.832
- IC50 (Salubrinal): 10500 nM

Cell Line: EJM (lymphoid neoplasm, semi-adherent)
- AUC (PIK-93): 0.601
- IC50 (PIK-93): 2250 nM
- AUC (ABT-263): 0.934
- IC50 (ABT-263): > 2000 nM
- AUC (piperlongumine): 0.822
- IC50 (piperlongumine): 4680 nM
- AUC (GW843682X): 0.813
- IC50 (GW843682X): 111 nM
- AUC (GW 441756): 0.639
- IC50 (GW 441756): 282 nM
- AUC (Salubrinal): 0.932
- IC50 (Salubrinal): > 16000 nM

Cell Line: SLVL (B-cell lymphoma, suspension)
- AUC (PIK-93): 0.337
- IC50 (PIK-93): 426 nM
- AUC (ABT-263): 0.872
- IC50 (ABT-263): > 2000 nM
- AUC (piperlongumine): 0.935
- IC50 (piperlongumine): > 10000 nM
- AUC (GW843682X): 0.731
- IC50 (GW843682X): 75.9 nM
- AUC (GW 441756): 0.506
- IC50 (GW 441756): 130 nM
- AUC (Salubrinal): 0.929
- IC50 (Salubrinal): > 16000 nM

Cell Line: SHP-77 (small cell lung carcinoma, semi-adherent)
- AUC (PIK-93): 0.929
- IC50 (PIK-93): > 20000 nM
- AUC (ABT-263): 0.987
- IC50 (ABT-263): > 2000 nM
- AUC (piperlongumine): 0.801
- IC50 (piperlongumine): 4270 nM
- AUC (GW843682X): 0.646
- IC50 (GW843682X): 38.6 nM
- AUC (GW 441756): 0.987
- IC50 (GW 441756): > 2000 nM
- AUC (Salubrinal): 0.929
- IC50 (Salubrinal): > 16000 nM

Cell Line: NAMALWA (Burkitt lymphoma, suspension)
- AUC (PIK-93): 0.578
- IC50 (PIK-93): 1970 nM
- AUC (ABT-263): 0.99
- IC50 (ABT-263): > 2000 nM
- AUC (piperlongumine): 0.79
- IC50 (piperlongumine): 3710 nM
- AUC (GW843682X): 0.401
- IC50 (GW843682X): 8.95 nM
- AUC (GW 441756): 0.991
- IC50 (GW 441756): > 2000 nM
- AUC (Salubrinal): 0.939
- IC50 (Salubrinal): > 16000 nM

Cell Line: SF126 (glioma, adherent)
- AUC (PIK-93): 0.751
- IC50 (PIK-93): 6910 nM
- AUC (ABT-263): 0.934
- IC50 (ABT-263): > 2000 nM
- AUC (piperlongumine): 0.715
- IC50 (piperlongumine): 2630 nM
- AUC (GW843682X): 0.714
- IC50 (GW843682X): 66.9 nM
- AUC (GW 441756): 0.844
- IC50 (GW 441756): 1550 nM
- AUC (Salubrinal): 0.914
- IC50 (Salubrinal): > 16000 nM
